PMC4336329 (PLoS ONE, 2015)
The whole screen tested about 310,000 compounds, of which about 2,200 (0.71%) showed an effect of 50% or more. Effects have a minus sign here. The list shows a part of the results.

The compounds below were run against human ether-à-go-go-related gene (hERG) potassium channel (human, UniProt Q12809) (assay: primary screen, population patch clamp on CHO cells stably expressing hERG).
human ether-à-go-go-related gene (hERG) potassium channel, sequence (Q12809 whole entry, looked up): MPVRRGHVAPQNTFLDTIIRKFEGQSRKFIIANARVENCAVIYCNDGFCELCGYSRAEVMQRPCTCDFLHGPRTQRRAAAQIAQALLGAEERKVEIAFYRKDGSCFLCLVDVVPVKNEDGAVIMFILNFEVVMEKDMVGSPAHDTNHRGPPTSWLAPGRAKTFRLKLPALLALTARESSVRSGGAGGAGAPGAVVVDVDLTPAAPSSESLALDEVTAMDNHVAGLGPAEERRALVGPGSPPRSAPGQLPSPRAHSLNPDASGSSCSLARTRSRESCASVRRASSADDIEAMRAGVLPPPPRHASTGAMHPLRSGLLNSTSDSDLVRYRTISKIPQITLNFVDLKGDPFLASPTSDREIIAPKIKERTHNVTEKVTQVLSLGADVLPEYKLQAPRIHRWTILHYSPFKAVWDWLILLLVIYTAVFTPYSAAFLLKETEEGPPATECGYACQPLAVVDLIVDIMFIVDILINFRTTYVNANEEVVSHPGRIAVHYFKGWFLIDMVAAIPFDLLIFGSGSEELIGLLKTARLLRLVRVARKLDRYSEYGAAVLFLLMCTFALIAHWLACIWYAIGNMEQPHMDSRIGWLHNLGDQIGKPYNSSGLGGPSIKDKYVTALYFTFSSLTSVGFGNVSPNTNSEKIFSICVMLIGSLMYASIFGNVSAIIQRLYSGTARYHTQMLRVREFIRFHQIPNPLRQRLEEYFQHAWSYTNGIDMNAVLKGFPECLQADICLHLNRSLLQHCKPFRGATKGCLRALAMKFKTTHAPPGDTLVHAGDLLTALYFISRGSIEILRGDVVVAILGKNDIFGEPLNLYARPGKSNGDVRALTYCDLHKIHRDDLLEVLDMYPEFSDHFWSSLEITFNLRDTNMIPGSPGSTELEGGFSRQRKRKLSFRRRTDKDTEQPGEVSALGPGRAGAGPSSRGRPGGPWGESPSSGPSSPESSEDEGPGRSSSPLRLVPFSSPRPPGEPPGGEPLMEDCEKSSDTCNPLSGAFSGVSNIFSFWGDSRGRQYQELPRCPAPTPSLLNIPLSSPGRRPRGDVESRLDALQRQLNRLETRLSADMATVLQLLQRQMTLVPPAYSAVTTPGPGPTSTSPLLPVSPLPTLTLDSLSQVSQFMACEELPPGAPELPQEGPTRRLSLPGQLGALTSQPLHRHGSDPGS

| SMILES | hERG current change (%, negative = inhibition) at 1uM |
| --- | --- |
| COc1ccc(NC(=O)c2ccco2)cc1N | 7.59% |
| CC(=O)c1ccc(OCC(O)CN2CCCC(C)C2)cc1.Cl (stereo not drawn) | 5.91% |
| NC(=O)c1ccc2c(=O)n3c(-c4cccs4)csc3nc2c1 | 16.1% |
| COc1ccc2ccccc2c1/C=N/NC(=S)NCCN1CCOCC1 | 7.45% |
| CCN(CC)C(=O)Oc1ccc(NC(C)=O)cc1 | 21.9% |
| CCc1cccc(CC)c1NC(=O)COC(=O)C1(C)CC1(Cl)Cl (stereo not drawn) | 23.5% |
| Cc1ccc(-c2noc(CCC(=O)Nc3ccc(C)cn3)n2)cc1 | 8.99% |
| C=CCn1c(SCC(=O)c2ccccc2)nnc1-c1ccc2c(c1)OCO2 | 1.56% |
| CC(CN1CCOCC1)OC(=O)c1ccc(Br)cc1.Cl (stereo not drawn) | -0.655% |
| COc1ccccc1N=c1c2c([N+](=O)[O-])cc([N+](=O)[O-])cc2n(O)n1-c1ccccc1OC | 9.41% |
| COc1ccc(C2CC(c3ccccc3)=NN2C(=O)CN2N=NC3C(=O)N(c4cccc(F)c4)C(=O)C32)cc1 (stereo not drawn) | 17.8% |
| Cc1nc(S(=O)(=O)N(C)c2ccccc2)c(C#N)c(C)c1Cl | 12.9% |
| Cc1cc(C)n(CCC(=O)Nc2ccc(-c3ccno3)cc2)n1 | 8.96% |
| CCCCN=C(N)/C(C(=O)OCC)=C(\O)c1ccc(OC)cc1 | -2.55% |
| Cc1ccc2nc(-c3ccc(SCC(=O)Nc4ccc5c(c4)OCCO5)nc3)[nH]c2c1 | 5.88% |
| O=C(Nc1ccc(N2CCN(C(=O)c3ccccc3)CC2)cc1)c1cccs1 | -3% |
| O=C(Cn1nnc(-c2ccc(CN3CCOCC3)cc2)n1)N1CCCc2ccccc21 | -13.3% |
| O=C(CCC1CCCN(C(=O)c2cncs2)C1)NCc1ccc(F)c(F)c1 (stereo not drawn) | 8.79% |
| CCOc1cc(C(=O)OCC(=O)NCc2ccco2)cc(OCC)c1OCC | 8.76% |
| CCc1sc(C(C2C(=O)CC(C)(C)CC2=O)C2C(=O)CC(C)(C)CC2=O)cc1[N+](=O)[O-] | 8.06% |
| Cc1ccc(S(=O)(=O)N2CCC(=O)N(CCOCc3cccc(F)c3)CC2)cc1 | 7.15% |
| CCCCn1c(CCC)nc([N+](=O)[O-])c1Sc1ccc(Cl)cn1 | -14.5% |
| CCc1nc2ccccc2[nH]1 | -3.04% |

| SMILES | hERG current change (%, negative = inhibition) at 1uM |
| --- | --- |
| CCCc1cc(=O)n2nc(N3CCC(C(=O)N4CCN(c5cccc(OC)c5)CC4)CC3)sc2n1 | -12.3% |
| Cc1ccc(NC(=O)C2CCCCC2C(=O)O)cc1Cl (stereo not drawn) | 2.36% |
| Cc1cc(C)n(CC(=O)NC2CCCCC2C)c(=O)c1C#N (stereo not drawn) | 5.52% |
| COc1ccc(N/C(N)=N/c2nc(C)c(Cc3ccccc3)c(=O)[nH]2)cc1 | 16.3% |
| O=C(NC1CCCC1)C1CCCN1C(=O)Nc1ccccc1 (stereo not drawn) | 16.4% |
| Cc1ccc2cc(C)c(SCC#N)nc2c1 | 13.9% |
| CN1CCN(CCn2c(=S)[nH]c3ccccc3c2=O)CC1 | 5.52% |
| CCCCc1ccc(/C=C2/C(=O)ON=C2c2ccccc2)s1 | 16.2% |
| CNC(=O)CSc1nnc(-c2cc(C)cc(C)c2)o1 | 6.79% |
| CC(=O)N1c2ccc3ccccc3c2C(C)CC12CCCCC2 (stereo not drawn) | 6.89% |
| CN(C)S(=O)(=O)N1CCN(c2ccc(Cl)cc2)CC1 | 5.65% |
| CCc1ccccc1N1C(=O)C2CC(C)=C(C)CC2C1=O (stereo not drawn) | 15% |
| CCCn1nnnc1NCc1ccc(N(C)C)cc1 | 10.2% |
| Cc1cc(C)nc(NC(=S)Nc2cccc(Cl)c2Cl)c1 | 15.2% |
| O=c1[nH]c2ccc(S(=O)(=O)N3CCCCC3)cc2o1 | 14.3% |
| COc1ccc(S(=O)(=O)N2CCOCC2)cc1NC(=O)c1ccc(OCC(C)C)c(OC)c1 | 0.239% |
| Cc1cc(C)cc(C(=O)OCC(=O)N2CCCC2)c1 | 6.37% |
| CCC(C)N(C(=O)COC(=O)c1[nH]c(C)c(C(C)=O)c1C)C1CCS(=O)(=O)C1 (stereo not drawn) | -0.629% |
| CCC1=C(OC(=O)N(CC)CC)N2C(=O)OC(=NCC3CC3)[C@]2(Cc2ccccc2)[C@H]2C1=CC[C@H]1C(=O)N(CC(=O)OC)C(=O)[C@H]12 | 4.88% |
| O=C(O)C(=O)/C(=C\c1ccc(Cl)cc1)c1ccc2ccccc2n1 | 8.44% |
| CC1CN(C(=O)c2ccc3c(c2)OCO3)CC(C)O1 (stereo not drawn) | 3.09% |
| Cc1sc2nc(C3CC3)nc(N3CCN(S(=O)(=O)c4ccc(F)cc4)CC3)c2c1C | 6.79% |
| O=C(N/N=C\c1cccnc1)c1ccc(Cl)s1 | 14.7% |

| SMILES | hERG current change (%, negative = inhibition) at 1uM |
| --- | --- |
| COc1ccc(NC(=O)CCCn2c(=O)c3sccc3n(Cc3cccc(C)c3)c2=O)cc1 | 13.1% |
| COc1cc(C=O)ccc1OC(=O)c1cccnc1 | 13.7% |
| CCOc1ccc(N2CC(C(=O)Nc3ccc(S(=O)(=O)N4CCCCC4)cc3)CC2=O)cc1 (stereo not drawn) | 11.8% |
| COC(=O)c1nnn(-c2nonc2N)c1CSc1nc2ccccc2s1 | -3.01% |
| COc1ccccc1-c1nnc2sc(COc3ccc(Cl)cc3)nn12 | 7.85% |
| Cc1c(CCOC(=O)CC23CC4CC(CC(C4)C2)C3)sc[n+]1CC(=O)c1ccccc1.[Br-] | -6.04% |
| CC1(C)Cc2ccccc2C(=NC(Cc2c[nH]c3ccccc23)C(=O)O)N1 (stereo not drawn) | 9.1% |
| O=C(/C=C/c1ccc(Cl)cc1Cl)n1cccn1 | 10.1% |
| CC(C)c1ccc(NC(=O)c2cc3c(=O)n(C)c4ccccc4c3n2C)cc1 | 12.4% |
| CN(CC(=O)Nc1cccc(F)c1)CC(=O)Nc1ccccc1[N+](=O)[O-] | 10% |
| O=C(O)CCn1cc(C=C2C(=O)NC(=O)NC2=O)c(-c2cc3ccccc3oc2=O)n1 | 20.6% |
| O=C(CCc1nc(-c2ccccc2F)no1)NCCN1CCc2ccccc2C1 | -17.1% |
| N#C/C(=C/c1ccc(F)cc1)C(N)=S | 21.9% |
| CCOC(=O)c1c(S(=O)(=O)Nc2ccc(F)cc2C)c(C)n(C)c1C | 10.4% |
| CCOC(=O)c1sc(NC(=S)NC(=O)c2ccccc2)c(C(=O)OCC)c1C | 14.1% |
| Cc1cc(NC(=O)CNCC(c2ccccc2)N(C)C)c([N+](=O)[O-])cc1C (stereo not drawn) | -1.9% |
| Cc1ccccc1-n1c(=O)cc(N2CCc3ccccc3C2)[nH]c1=O | -17.1% |
| Cc1ccccc1OCC(=O)Nc1ccccc1-c1ccccc1 | 7.98% |
| c1ccc2[nH]cnc2c1 | 8.56% |
| CCOc1ccccc1NC(=O)C(c1ccccc1)N1CCN(C(=O)c2ccco2)CC1 (stereo not drawn) | -12.1% |
| CC(C)C(c1nnnn1C1CCCCC1)N1CCOCC1 (stereo not drawn) | 5.38% |
| COc1ccc(-c2cc(C(F)(F)F)nc(SCC(=O)N3CCOCC3)n2)cc1OC | -10.7% |
| CCOC(=O)CCC(=O)N1CCOCCN(C(=O)CCC(=O)OCC)CCOCC1 | 16.5% |

| SMILES | hERG current change (%, negative = inhibition) at 1uM |
| --- | --- |
| CC(C)(C)n1cnc2cc(NS(=O)(=O)c3ccccc3)ccc21 | 2.3% |
| CCn1c(COc2ccccc2OC)nnc1SCC(=O)NC1CCCC1 | -4.68% |
| CCC(C)Sc1cccc(-c2nc3ccc(Cl)cn3c2NCc2ccccc2)c1.O=C(O)C(F)(F)F (stereo not drawn) | 9.74% |
| O=C(NCCCCNC(=O)c1ccccc1Cl)c1ccccc1Cl | 9.68% |
| COc1cc(/C=N/NC2=NCCCCC2)ccc1O.Cl | 10.8% |
| O=C(Nc1ccc(Cl)cc1C(=O)NCC1CCCO1)c1ccc(Cl)cc1Cl (stereo not drawn) | 11.8% |
| Cc1cccc(C(=O)NCC(=O)NNC(=O)c2ccccc2O)c1 | 8.96% |
| COCC(COS(N)(=O)=O)C(C)C (stereo not drawn) | 7.19% |
| COc1ccc(CCC(=O)NNC(=O)c2cc(Cl)ccc2OC)cc1OC | 3.48% |
| CC(C)CCNC(=O)C1CCN(S(=O)(=O)c2ccc(-n3cnnn3)cc2)CC1 | 10.1% |
| COc1ccc(CNC(=O)c2cnc3cc(C)ccn3c2=O)cc1 | 4.63% |
| O=C(CC1NCCNC1=O)Nc1ccc(Oc2ccccc2)cc1 (stereo not drawn) | 20.8% |
| O=C(COC(=O)c1cccs1)c1ccccc1 | 11.1% |
| Cc1ccccc1NCCC(=O)Nc1ccc(Cl)cc1 | 2.25% |
| COC(=O)[C@H](CCSC)NC(=O)N1CCC(C)CC1 | 4.82% |
| CCn1c(SCC(=O)NCC2CCCO2)nc2c([nH]c3ccccc32)c1=O (stereo not drawn) | 8.75% |
| O=C(O)CC1SC(=Nc2cccc(C(F)(F)F)c2)NC1=O (stereo not drawn) | 9.22% |
| CCOC(=O)C1=C(Cn2cnc3ccccc32)NC(=O)NC1c1ccc(OC)cc1 (stereo not drawn) | -9.03% |
| COc1cc(N(C(=O)Cc2cccs2)C(C(=O)NC2CCCCC2)c2cccc(OC)c2OC)ccc1-n1cnnn1 (stereo not drawn) | 8.24% |
| CCN1C(=O)N[C@@H](c2cccc(C(F)(F)F)c2)[C@@H](C(=O)OC)[C@H]1C | -0.168% |
| O=C(CSc1ccc2ccccc2c1)NC1CCCc2ccccc21 (stereo not drawn) | 10.3% |
